# Measurements as given in the supplement of paper PMC8728848.
# Some of the results follow.
# B1: Surfactant Protein D (Human); Neck + Carbohydrate Recognition Domain (NCRD) (Homo sapiens) (protein)
# chain: MLLFLLSALVLLTQPLGYLEAEMKTYSHRTMPSACTLVMCSSVESGLPGRDRDGREGPRGEKGDPGLPGAAGQAGMPGQAGPVGPKGDNGSVGEPGPKGDTGPSGPPGPPGVPGPAGREGALGKQGNIGPQGKPGPKGEAGPKGEVGAPGMQGSAGARGLAGPKGERGVPGERGVPGNTGAAGSAGAMGPQGSPGARGPPGLKGDKGIPGDKGAKGESGLPDVASLRQQVEALQGQVQHLQAAFSQYKKVELFPNGQSVGEKIFKTAQFVKPFTEAQLLCTQAGGQLASPRSAAENAALQQLVVAKNEAAFLSMTDSKTEGKFTYPTGESLVYSNWAPGEPNDAGGSEDCVEIFTNGKWNDRACGEKRLVVCEF
# Experiments:
# Test in all cases: glycan array binding signal (z-score within array); higher = stronger binding
# Settings in all cases: glycan notation: IUPAC condensed, linker removed; mutation: D325A
# GlcNAc(b1-6)GalNAc = molecular target: GlcNAc(b1-6)GalNAc
# Method in brief: (§1)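 Glycan array data were curated from 3228 arrays in the Consortium for Functional Glycomics database and kept only where the protein sequence was available. Glycan names were converted to IUPAC-condensed notation, and columns mapping to the same glycan were averaged. The binding signal is a within-array Z-score, averaged across arrays of the same protein sequence at different concentrations or buffers and across linkers. Negative Z-scores can be read as non-binding.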
# GlcNAc3Prop(b1-4)GlcNAc = molecular target: GlcNAc3Prop(b1-4)GlcNAc
# Method in brief: as §1
# Kdn(a2-3)Gal(b1-3)GlcNAc = molecular target: Kdn(a2-3)Gal(b1-3)GlcNAc
# Method in brief: as §1
# Kdn(a2-3)Gal(b1-4)GlcNAc = molecular target: Kdn(a2-3)Gal(b1-4)GlcNAc
# Method in brief: as §1
# [1] = molecular target: Man(a1-2)Man(a1-2)Man(a1-3)Man
# Method in brief: as §1
# [2] = molecular target: Man(a1-2)Man(a1-2)Man(a1-6)[Man(a1-3)]Man
# Method in brief: as §1
# Man(a1-2)Man(a1-3)Man = molecular target: Man(a1-2)Man(a1-3)Man
# Method in brief: as §1
# [3] = molecular target: Man(a1-2)Man(a1-3)[Man(a1-2)Man(a1-6)]Man
# Method in brief: as §1
# [4] = molecular target: Man(a1-2)Man(a1-3)[Man(a1-2)Man(a1-6)]Man(a1-6)[Man(a1-2)Man(a1-2)Man(a1-3)]Man
# Method in brief: as §1
# [5] = molecular target: Man(a1-2)Man(a1-3)[Man(a1-2)Man(a1-6)]Man(a1-6)[Man(a1-2)Man(a1-2)Man(a1-3)]Man(b1-4)GlcNAc(b1-4)GlcNAc
# Method in brief: as §1
# [6] = molecular target: Man(a1-2)Man(a1-3)[Man(a1-6)]Man(a1-6)[Man(a1-2)Man(a1-3)]Man(b1-4)GlcNAc(b1-4)GlcNAc
# Method in brief: as §1
# [7] = molecular target: Man(a1-2)Man(a1-6)[Man(a1-3)]Man(a1-6)[Man(a1-2)Man(a1-2)Man(a1-3)]Man
# Method in brief: as §1
# [8] = molecular target: Man(a1-2)Man(a1-6)[Man(a1-3)]Man(a1-6)[Man(a1-2)Man(a1-2)Man(a1-3)]Man(b1-4)GlcNAc(b1-4)GlcNAc
# Method in brief: as §1
# Man(a1-3)[Man(a1-6)]Man = molecular target: Man(a1-3)[Man(a1-6)]Man
# Method in brief: as §1
# [9] = molecular target: Man(a1-3)[Man(a1-6)]Man(a1-6)[Man(a1-2)Man(a1-3)]Man(b1-4)GlcNAc(b1-4)GlcNAc
# Method in brief: as §1
# [10] = molecular target: Man(a1-3)[Man(a1-6)]Man(a1-6)[Man(a1-3)]Man
# Method in brief: as §1
# [11] = molecular target: Man(a1-3)[Man(a1-6)]Man(a1-6)[Man(a1-3)]Man(b1-4)GlcNAc(b1-4)GlcNAc
# Method in brief: as §1
# [12] = molecular target: Man(a1-3)[Man(a1-6)]Man(b1-4)GlcNAc(b1-4)GlcNAc
# Method in brief: as §1
# Man(a1-6)Man = molecular target: Man(a1-6)Man
# Method in brief: as §1
# Man(b1-4)GlcNAc = molecular target: Man(b1-4)GlcNAc
# Method in brief: as §1
# Neu5Ac(a2-3)Gal = molecular target: Neu5Ac(a2-3)Gal
# Method in brief: as §1
# [13] = molecular target: Neu5Ac(a2-3)Gal(b1-3)GalNAc
# Method in brief: as §1
# [14] = molecular target: Neu5Ac(a2-3)Gal(b1-3)GalNAc(b1-3)Gal(a1-4)Gal(b1-4)Glc
# Method in brief: as §1
# [15] = molecular target: Neu5Ac(a2-3)Gal(b1-3)GalNAc(b1-3)Gal(b1-4)GlcNAc
# Method in brief: as §1
# [16] = molecular target: Neu5Ac(a2-3)Gal(b1-3)GalNAc(b1-4)[Neu5Ac(a2-3)]Gal(b1-4)Glc
# Method in brief: as §1
# [17] = molecular target: Neu5Ac(a2-3)Gal(b1-3)GalNAc6S
# Method in brief: as §1
# [18] = molecular target: Neu5Ac(a2-3)Gal(b1-3)GlcNAc
# Method in brief: as §1
# [19] = molecular target: Neu5Ac(a2-3)Gal(b1-3)GlcNAc(b1-3)Gal(b1-3)GlcNAc
# Method in brief: as §1
# [20] = molecular target: Neu5Ac(a2-3)Gal(b1-3)GlcNAc6S
# Method in brief: as §1
# [21] = molecular target: Neu5Ac(a2-3)Gal(b1-3)[Fuc(a1-4)]GlcNAc
# Method in brief: as §1
# [22] = molecular target: Neu5Ac(a2-3)Gal(b1-3)[Fuc(a1-4)]GlcNAc(b1-3)Gal(b1-4)[Fuc(a1-3)]GlcNAc
# Method in brief: as §1
# [23] = molecular target: Neu5Ac(a2-3)Gal(b1-3)[Neu5Ac(a2-3)Gal(b1-4)]GlcNAc
# Method in brief: as §1
# [24] = molecular target: Neu5Ac(a2-3)Gal(b1-3)[Neu5Ac(a2-6)]GalNAc
# Method in brief: as §1
# Neu5Ac(a2-3)Gal(b1-4)Glc = molecular target: Neu5Ac(a2-3)Gal(b1-4)Glc
# Method in brief: as §1
# [25] = molecular target: Neu5Ac(a2-3)Gal(b1-4)GlcNAc
# Method in brief: as §1
# [26] = molecular target: Neu5Ac(a2-3)Gal(b1-4)GlcNAc(b1-2)Man(a1-3)[GlcNAc(b1-2)Man(b1-4)GlcNAc(b1-2)Man(a1-6)]Man(b1-4)GlcNAc(b1-4)GlcNAc
# Method in brief: as §1
# [27] = molecular target: Neu5Ac(a2-3)Gal(b1-4)GlcNAc(b1-2)Man(a1-3)[Neu5Ac(a2-6)Gal(b1-4)GlcNAc(b1-2)Man(a1-6)]Man(b1-4)GlcNAc(b1-4)GlcNAc
# Method in brief: as §1
# [28] = molecular target: Neu5Ac(a2-3)Gal(b1-4)GlcNAc(b1-3)Gal(b1-3)GlcNAc
# Method in brief: as §1
# [29] = molecular target: Neu5Ac(a2-3)Gal(b1-4)GlcNAc(b1-3)Gal(b1-4)GlcNAc
# Method in brief: as §1
# [30] = molecular target: Neu5Ac(a2-3)Gal(b1-4)GlcNAc(b1-3)Gal(b1-4)GlcNAc(b1-3)Gal(b1-4)GlcNAc
# Method in brief: as §1
# [31] = molecular target: Neu5Ac(a2-3)Gal(b1-4)GlcNAc(b1-3)Gal(b1-4)[Fuc(a1-3)]GlcNAc
# Method in brief: as §1
# [32] = molecular target: Neu5Ac(a2-3)Gal(b1-4)GlcNAc(b1-6)[Gal(b1-3)]GalNAc
# Method in brief: as §1
# [33] = molecular target: Neu5Ac(a2-3)Gal(b1-4)GlcNAc(b1-6)[Neu5Ac(a2-3)Gal(b1-3)]GalNAc
# Method in brief: as §1
# [34] = molecular target: Neu5Ac(a2-3)Gal(b1-4)GlcNAc6S
# Method in brief: as §1
binder,measurement,setting,value
B1,glycan array binding signal (z-score),GlcNAc(b1-6)GalNAc,-0.264
same,glycan array binding signal (z-score),GlcNAc3Prop(b1-4)GlcNAc,-0.252
same,glycan array binding signal (z-score),Kdn(a2-3)Gal(b1-3)GlcNAc,-0.246
same,glycan array binding signal (z-score),Kdn(a2-3)Gal(b1-4)GlcNAc,-0.26
same,glycan array binding signal (z-score),[1],5.67
same,glycan array binding signal (z-score),[2],4.19
same,glycan array binding signal (z-score),Man(a1-2)Man(a1-3)Man,1.8
same,glycan array binding signal (z-score),[3],3.81
same,glycan array binding signal (z-score),[4],5.16
same,glycan array binding signal (z-score),[5],4.21
same,glycan array binding signal (z-score),[6],4.58
same,glycan array binding signal (z-score),[7],4.8
same,glycan array binding signal (z-score),[8],4.37
same,glycan array binding signal (z-score),Man(a1-3)[Man(a1-6)]Man,0.213
same,glycan array binding signal (z-score),[9],4.71
same,glycan array binding signal (z-score),[10],4.73
same,glycan array binding signal (z-score),[11],4.2
same,glycan array binding signal (z-score),[12],3.67
same,glycan array binding signal (z-score),Man(a1-6)Man,0.67
same,glycan array binding signal (z-score),Man(b1-4)GlcNAc,0.278
same,glycan array binding signal (z-score),Neu5Ac(a2-3)Gal,-0.276
same,glycan array binding signal (z-score),[13],-0.247
same,glycan array binding signal (z-score),[14],-0.268
same,glycan array binding signal (z-score),[15],-0.242
same,glycan array binding signal (z-score),[16],-0.254
same,glycan array binding signal (z-score),[17],-0.273
same,glycan array binding signal (z-score),[18],-0.273
same,glycan array binding signal (z-score),[19],-0.234
same,glycan array binding signal (z-score),[20],-0.169
same,glycan array binding signal (z-score),[21],-0.272
same,glycan array binding signal (z-score),[22],0.08
same,glycan array binding signal (z-score),[23],-0.264
same,glycan array binding signal (z-score),[24],-0.245
same,glycan array binding signal (z-score),Neu5Ac(a2-3)Gal(b1-4)Glc,-0.228
same,glycan array binding signal (z-score),[25],-0.265
same,glycan array binding signal (z-score),[26],-0.265
same,glycan array binding signal (z-score),[27],-0.275
same,glycan array binding signal (z-score),[28],-0.266
same,glycan array binding signal (z-score),[29],-0.269
same,glycan array binding signal (z-score),[30],-0.095
same,glycan array binding signal (z-score),[31],-0.237
same,glycan array binding signal (z-score),[32],-0.265
same,glycan array binding signal (z-score),[33],-0.27
same,glycan array binding signal (z-score),[34],-0.256
